Laboratory results from paper PMC7181697, “Molecular basis for assembly of the shieldin complex and its implications for NHEJ” (Nature Communications, 2020).
Blank lines part the entries; values can stand above or below the binder they belong to.

Assays:
[1] = biological target: T1, REV7^E35A-SHLD3(1–82) (human, UniProt Q9UI95; Q6ZNX1 1-82, E35A); experiment: ITC; in the context of MBP-SHLD2(1-60) (Supplementary Fig. 5a, b); details: both partners purified
T1 construct: REV7 (MAD2B, MAD2L2), human, full length; SHLD3, human, residues 1-82; cloned without His-tag; Homogeneous C-REV7-SHLD3(1-82) heterodimer by SEC-MALS; also called E35A-1–82; source: E. coli BL21(DE3), co-expressed (pETduet), purified (Ni-IDA, SEC)

[2] = biological target: T2, REV7^K44A-SHLD3(28-82) (human, UniProt Q9UI95; Q6ZNX1 28-82, K44A); experiment: ITC; ITC200, 25 °C, 20 mM Tris pH 8.0, 150 mM NaCl, 1% glycerol, 1 mM TCEP; one set of sites model; details: both partners purified
T2 construct: REV7 (MAD2B, MAD2L2), human, full length; SHLD3, human, residues 28-82; cloned without His-tag; source: E. coli BL21(DE3), co-expressed (pETduet), purified (Ni-IDA, SEC)

[3] = biological target: T1, REV7^E35A-SHLD3(1–82); experiment: as above; details: both partners purified
T1 sequence (Q9UI95 whole entry E35A, chain 1 of 2): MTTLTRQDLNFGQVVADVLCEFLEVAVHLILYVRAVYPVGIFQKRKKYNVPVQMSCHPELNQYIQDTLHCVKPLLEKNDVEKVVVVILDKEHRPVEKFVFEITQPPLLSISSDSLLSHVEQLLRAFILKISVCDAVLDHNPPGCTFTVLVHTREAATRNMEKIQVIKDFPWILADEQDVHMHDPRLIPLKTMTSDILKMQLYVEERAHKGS
T1 sequence (Q6ZNX1 1-82, chain 2 of 2, further chain): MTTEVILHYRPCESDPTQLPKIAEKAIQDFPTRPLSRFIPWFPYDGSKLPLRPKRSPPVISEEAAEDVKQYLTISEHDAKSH

[4] = biological target: T3, REV7^K44A-SHLD3(1–82)^FIPWFP/AIAAAA (human, UniProt Q9UI95; Q6ZNX1 1-82, K44A | FIPWFP/AIAAAA); experiment: as above; details: both partners purified
T3 construct: REV7 (MAD2B, MAD2L2), human, full length; SHLD3, human, residues 1-82; the FXPWFP motif stands at 38-43; cloned without His-tag; also called REV7^K44A-SHLD3(1–82)^5A; source: E. coli BL21(DE3), co-expressed (pETduet), purified (Ni-IDA, SEC)

[5] = biological target: T4, REV7^K44A-SHLD3(1–82) (human, UniProt Q9UI95; Q6ZNX1 1-82, K44A); experiment: as above; details: both partners purified
T4 construct: REV7 (MAD2B, MAD2L2), human, full length; SHLD3, human, residues 1-82; cloned without His-tag; Homogeneous C-REV7-SHLD3(1-82) heterodimer by SEC-MALS; also called K44A-1–82; C-REV7 (as used in the ITC experiments); source: E. coli BL21(DE3), co-expressed (pETduet), purified (Ni-IDA, SEC)

[6] = biological target: T5, REV7^K44A-SHLD3(1–82)^F38A (human, UniProt Q9UI95; Q6ZNX1 1-82, K44A | F38A); experiment: as above; details: both partners purified
T5 construct: REV7 (MAD2B, MAD2L2), human, full length; SHLD3, human, residues 1-82; cloned without His-tag; source: E. coli BL21(DE3), co-expressed (pETduet), purified (Ni-IDA, SEC)

[7] = biological target: T6, REV7^K44A-SHLD3(38–82) (human, UniProt Q9UI95; Q6ZNX1 38-82, K44A); experiment: as above; details: both partners purified
T6 construct: REV7 (MAD2B, MAD2L2), human, full length; SHLD3, human, residues 38-82; cloned without His-tag; source: E. coli BL21(DE3), co-expressed (pETduet), purified (Ni-IDA, SEC)

[8] = biological target: T7, REV7^K44A-SHLD3(45–82) (human, UniProt Q9UI95; Q6ZNX1 45-82, K44A); experiment: as above; details: both partners purified
T7 construct: REV7 (MAD2B, MAD2L2), human, full length; SHLD3, human, residues 45-82; cloned without His-tag; source: E. coli BL21(DE3), co-expressed (pETduet), purified (Ni-IDA, SEC)

[9] = biological target: the molecule itself; experiment: SEC-MALS; co-expressed and co-purified REV7-SHLD3(1-82) samples; 100 μl at 5 mg/ml, WTC-015S5 column, 20 mM Tris-HCl pH 8.0, 150 mM NaCl, 1% glycerol, 1 mM TCEP, 0.01% NaN3

Chain of REV7^K44A-SHLD3(1–82) (Q9UI95 whole entry K44A, chain 1 of 2): as the sequence (Q9UI95 whole entry E35A, chain 1 of 2) above, with A35E, K44A counted along it
Chain of REV7^K44A-SHLD3(1–82) (Q6ZNX1 1-82, chain 2 of 2, further chain): as the sequence (Q6ZNX1 1-82, chain 2 of 2, further chain) above

- Kd [1]: 60 ± 19 nM
- Kd [2]: 200 nM
- Kd [3]: ~280 nM
- Kd [4]: 3300 nM
- Kd [5]: ~110 nM
- Kd [6]: 1800 nM
- Kd [7]: 470 nM
- Kd [8]: 4100 nM
B1: REV7^K129A (natural protein)
chain: not shown
notes: REV7 (MAD2B, MAD2L2), human, full length; also called O-REV7 (as used in the ITC and SEC experiments); source: E. coli BL21(DE3), purified (Ni-IDA, SEC); alone or co-expressed with SHLD3([…])

- Kd [3]: 6600 nM
B2: REV7^K129A-REV3([…]) (complex)
chain 1: [about 200 residues not spelt out]
chain 2: MLTPTPDSSPRSTSSPSQSKNGSFTPRTANILKPLMSPPSREEIMATLLDHDLSETIYQE
notes: REV7 (MAD2B, MAD2L2), human, full length; also called represents C-REV7

B3: REV7^Y63A (natural protein)
chain: not shown
notes: REV7 (MAD2B, MAD2L2), human, full length; source: E. coli BL21(DE3), purified (Ni-IDA, SEC); alone or co-expressed with SHLD3([…])
- binding result [9]: binds

B4: REV7^W171A (natural protein)
chain: not shown
notes: as for B3
- binding result [9]: binds
